Experimental data taken from PubChem BioAssay AID1460 (National Center for Advancing Translational Sciences (NCATS), 2008).
In all, about 270,000 compounds went through this assay and about 5,800 (2.1%) were called active. Inconclusive means that the source gave no clear call. Such entries were picked first, then a sample of the others. The call rests on the fitted dose curve; in most records, active means well fitted inhibition curve with a large enough effect; inconclusive means small, poorly fitted or top-dose-only effect; inactive means flat fitted curve, though single readings scatter. Potencies of inconclusive entries are doubtful fits and often do not repeat.

Biological target: Microtubule-associated protein tau (Homo sapiens) (UniProt P10636)
Chain of UniProt P10636 (P10636 whole entry, looked up): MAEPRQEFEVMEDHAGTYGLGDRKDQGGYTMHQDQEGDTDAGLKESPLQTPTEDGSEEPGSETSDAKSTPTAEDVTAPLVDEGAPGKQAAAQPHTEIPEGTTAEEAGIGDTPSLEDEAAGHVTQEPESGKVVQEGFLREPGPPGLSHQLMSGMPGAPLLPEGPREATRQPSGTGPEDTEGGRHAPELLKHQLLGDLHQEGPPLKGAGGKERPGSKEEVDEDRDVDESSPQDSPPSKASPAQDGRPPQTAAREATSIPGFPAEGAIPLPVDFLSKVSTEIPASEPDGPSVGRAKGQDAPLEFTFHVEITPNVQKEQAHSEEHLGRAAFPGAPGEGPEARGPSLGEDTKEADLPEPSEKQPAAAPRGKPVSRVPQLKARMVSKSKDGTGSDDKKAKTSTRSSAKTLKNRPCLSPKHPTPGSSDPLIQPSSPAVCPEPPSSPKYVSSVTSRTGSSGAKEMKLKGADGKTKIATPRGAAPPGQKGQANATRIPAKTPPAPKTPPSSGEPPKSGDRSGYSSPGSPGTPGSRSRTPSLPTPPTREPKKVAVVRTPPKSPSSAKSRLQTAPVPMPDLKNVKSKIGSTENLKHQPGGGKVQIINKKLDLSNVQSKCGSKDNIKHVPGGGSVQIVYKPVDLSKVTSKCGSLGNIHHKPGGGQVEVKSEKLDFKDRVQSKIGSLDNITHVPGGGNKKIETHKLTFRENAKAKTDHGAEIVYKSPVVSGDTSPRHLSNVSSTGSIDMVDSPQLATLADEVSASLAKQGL
Test: qHTS for Inhibitors of Tau Fibril Formation, Thioflavin T Binding; further: nearly all actives have a fitted effect of over 55% in size
Details: recombinant tau K18 P301L (four-repeat tau fragment), heparin-induced fibrillization, ThT fluorescence; series mostly up to 57.4 µM
In short: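 Aggregation was driven by heparin (20 uM final) acting on recombinant tau […] bearing P301L in 100 mM sodium acetate pH 7; fibrils were detected with Thioflavin T.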
Potency means the concentration at half of the fitted maximal effect; tags describe the fitted curve by direction and shape.

Row | SMILES | Potency
1 | Cc1ccccc1-n1c(C)cc(/C=C2/C(=O)NC(=O)N(Cc3ccco3)C2=O)c1C | inconclusive: 12.6 µM [inhibitor, partial curve]
2 | O=c1[nH]c(=S)[nH]c(O)c1N=Nc1ccc2c(c1)OCCO2 | active: 2.24 µM
3 | CCCN1CCCC(c2cccc(O)c2)C1 (stereo not drawn) | inactive
4 | Cc1c(N=Cc2c(O)n(CCc3ccc(F)cc3)c(=O)[nH]c2=O)c(=O)n(-c2ccccc2)n1C | inactive
5 | CC1(C)C(O)CC(=O)[C@]2(C)C1CC(=O)[C@]1(C)C2CC[C@@]2(C)C(c3ccoc3)OC(=O)C3O[C@@]321 (stereo partly drawn) | inactive
6 | NCCc1cccc(O)c1 | inactive
7 | CC(C)[C@H](NC(=O)[C@H](CCC(=O)O)NC(=O)[C@H](Cc1ccccc1)NC(=O)[C@H](C)NC(=O)[C@@H](N)Cc1ccc(O)cc1)C(=O)N[C@H](C(=O)NCC(N)=O)C(C)C | inactive
8 | O=c1[nH]c(=S)[nH]c(O)c1C(c1ccccn1)c1c(O)[nH]c(=S)[nH]c1=O | inactive
9 | CCN(CC)c1ccc(CNCCc2ccc(F)cc2)cc1 | inactive
10 | Cc1cccc(CN2CCN(Cc3ccc(Cl)cc3)CC2)c1 | inactive
11 | CCNC(=O)O/N=C(\C)c1sc(-c2ccc(Cl)cc2)nc1C | inconclusive: 7.08 µM [inhibitor, full curve]
12 | CCCCC(=O)N/N=C/c1c(O)n(CCc2ccc(OC)c(OC)c2)c(=O)[nH]c1=O | inconclusive: 22.4 µM [inhibitor, single point]
13 | Cc1cc2c(s1)NC(=O)CN=C2c1cccs1 | inactive
14 | Brc1ccccc1Cn1c(-c2cncs2)nc2ccccc21 | inconclusive: 22.4 µM [inhibitor, partial curve, poor fit]
15 | O=C(CC1CCCCC1)N1CCC(c2nc(-c3ccc(S(=O)(=O)N4CCCC4)cc3)no2)CC1 | inconclusive: 39.8 µM [inhibitor, single point]
16 | COc1ccc(C2=NOC(COC(=O)c3ccc4ccccc4n3)C2)cc1 (stereo not drawn) | inconclusive: 11.2 µM [inhibitor, partial curve]
17 | O=c1c2ccccc2nc(/C=C/c2ccco2)n1-c1ccccc1O | inconclusive: 39.8 µM [inhibitor, single point]
18 | CC(=O)N1CCN(c2ccc(OCC3CO[C@@](Cn4ccnc4)(c4ccc(Cl)cc4Cl)O3)cc2)CC1 (stereo partly drawn) | inconclusive: 20 µM [inhibitor, partial curve, poor fit]
19 | Cc1ccc(N2C(=O)NC(=O)/C(=C\c3ccsc3)C2=O)cc1C | inconclusive: 10 µM [inhibitor, partial curve]
20 | O=C(c1cc2c(s1)-c1ccccc1OC2)N1CCC2(CC1)OCCO2 | inconclusive: 31.6 µM [inhibitor, partial curve]
21 | C=CCn1c(O)c(N=Nc2c(C)n(C)n(-c3ccccc3)c2=O)c(=O)[nH]c1=S | inconclusive: 22.4 µM [inhibitor, partial curve]
22 | O=c1ccc2c(O)c3ccoc3cc2o1 | inconclusive: 17.8 µM [inhibitor, partial curve]

Row | SMILES | Potency
23 | O=C(/C=C/c1ccccc1)c1c(O)n(CCc2ccccc2)c(=O)[nH]c1=O | inconclusive: 31.6 µM [inhibitor, single point]
24 | CC/C(=C(\c1ccc(O)cc1)c1ccc(OCCN(C)C)cc1)c1ccccc1 | inconclusive: 17.8 µM [inhibitor, partial curve]
25 | C=CCN1C(=O)NC(=O)/C(=C/C=C/c2ccccc2)C1=O | active: 28.2 µM
26 | CC1CN(c2ccc([N+](=O)[O-])c3cccnc23)CC(C)N1 (stereo not drawn) | inactive
27 | O=C(c1ccc2nc(-c3ccco3)c(-c3ccco3)nc2c1)N1CCC2(CC1)OCCO2 | active: 8.91 µM
28 | Cc1ncc(CC(=O)n2cc(C(=O)c3cc(Cl)ccc3O)cn2)s1 | inconclusive: 3.16 µM [inhibitor, partial curve]
29 | CCOC(=O)CSc1ncnc2c1cnn2-c1ccccc1 | inconclusive: 15.8 µM [inhibitor, partial curve]
30 | C=CCC1(Nc2ccccc2)CC(C)N(C)CC1C (stereo not drawn) | inactive
31 | COc1cc(CN2CCc3nc(N4CCN(c5ncccn5)CC4)ncc3C2)cc(OC)c1OC | inconclusive: 8.91 µM [inhibitor, partial curve]
32 | Cc1ccc(N2C(=O)NC(=O)C3(Cc4ccccc4N4CCCC43)C2=O)cc1 (stereo not drawn) | inconclusive: 31.6 µM [inhibitor, partial curve]
33 | CC(=O)OC1CC(OC(C)=O)[C@]2(C)C(CC(OC(C)=O)[C@]3(C)C2CC[C@@]2(C)C(c4ccoc4)C[C@H]4O[C@]432)C1(C)C (stereo partly drawn) | inactive
34 | CCOC(=O)c1c(-n2c(C)cc(C=C3C(=O)NC(=S)NC3=O)c2C)sc2c1CCCC2 | inconclusive: 28.2 µM [inhibitor, partial curve]
35 | O=c1c2ccccc2nc(-c2ccco2)n1-c1ccccn1 | inactive
36 | COc1cccc(N2C(=O)CC(=O)NC2=O)c1 | inconclusive: 10 µM [inhibitor, partial curve]
37 | Cc1ccc(N2C(=O)/C(=C/c3ccc(CN(CCC#N)S(C)(=O)=O)o3)C(=O)NC2=S)cc1C | active: 17.8 µM
38 | CC(C)[C@@]1(NC(=O)[C@@H]2C[C@H]3c4cccc5[nH]cc(c45)C[C@@H]3N(C)C2)O[C@@]2(O)[C@H]3CCCN3C(=O)[C@H](Cc3ccccc3)N2C1=O | inconclusive: 31.6 µM [inhibitor, single point]
39 | CCn1c(O)c(C=Nc2ccc(S(N)(=O)=O)cc2)c(=O)[nH]c1=S | inconclusive: 11.2 µM [inhibitor, partial curve]
40 | Cc1ccc(-n2c(O)c(C=NCc3ccco3)c(=O)[nH]c2=S)cc1C | inconclusive: 39.8 µM [inhibitor, single point]
41 | COc1ccc(Cn2c(O)c(/C=N/NC(=O)c3ccccc3)c(=O)[nH]c2=O)cc1 | inactive
42 | CC(CO)NC(=O)C1C=C2c3cccc4[nH]cc(c34)C[C@H]2N(C)C1 (stereo partly drawn) | inconclusive: 25.1 µM [inhibitor, partial curve, poor fit]
43 | Cc1cc2c(cc(C(=O)N3CCC(C(=O)NC4CCCC4)CC3)n2Cc2c(F)cccc2Cl)o1 | inconclusive: 44.7 µM [inhibitor, single point]
